The text below walks through data of the supplement of paper PMC3334620.

Over roughly 33,000 sequences, “E-score (-0.5 to 0.5)” has its median near -0.043; the highest 2% begin near 0.37. The list shows a part of the results.

For the test, the target named is T1, Upc2 (UniProt Q12151).
T1 sequence: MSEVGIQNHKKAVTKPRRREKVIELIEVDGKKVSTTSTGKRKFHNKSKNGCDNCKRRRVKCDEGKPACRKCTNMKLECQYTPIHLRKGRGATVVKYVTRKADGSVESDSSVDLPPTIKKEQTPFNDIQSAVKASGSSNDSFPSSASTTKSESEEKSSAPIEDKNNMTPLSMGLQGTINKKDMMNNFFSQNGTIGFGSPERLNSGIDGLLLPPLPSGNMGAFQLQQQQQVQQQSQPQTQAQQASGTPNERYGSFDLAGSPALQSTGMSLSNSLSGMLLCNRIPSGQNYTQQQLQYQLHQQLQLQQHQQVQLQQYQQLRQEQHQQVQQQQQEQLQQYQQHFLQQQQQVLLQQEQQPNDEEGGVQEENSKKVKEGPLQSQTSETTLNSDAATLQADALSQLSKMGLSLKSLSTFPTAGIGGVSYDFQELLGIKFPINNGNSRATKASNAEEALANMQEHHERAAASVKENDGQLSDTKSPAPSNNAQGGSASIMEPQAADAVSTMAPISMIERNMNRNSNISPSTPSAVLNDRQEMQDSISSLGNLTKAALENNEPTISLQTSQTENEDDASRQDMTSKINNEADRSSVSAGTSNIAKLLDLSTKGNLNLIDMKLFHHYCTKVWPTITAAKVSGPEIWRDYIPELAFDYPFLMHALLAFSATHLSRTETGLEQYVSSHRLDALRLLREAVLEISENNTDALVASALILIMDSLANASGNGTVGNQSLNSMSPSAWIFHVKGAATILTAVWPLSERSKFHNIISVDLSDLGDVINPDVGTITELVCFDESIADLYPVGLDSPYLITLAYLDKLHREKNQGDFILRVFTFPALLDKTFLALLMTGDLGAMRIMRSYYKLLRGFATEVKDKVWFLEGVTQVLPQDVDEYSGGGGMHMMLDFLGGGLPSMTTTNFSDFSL
Kind of test: PBM E-score (8-mer binding enrichment) (E-score (-0.5 to 0.5)); higher = stronger / more preferred TF binding; most listed sequences are background and not binding sites. The conditions noted are these: protein concentration: 200 nM; construct: GST-full length. Summed up: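 Each ungapped eight-base word and its reverse complement, pooled, received an E-score from the Universal PBM Analysis Suite. Underlying scans, normalised with masliner, recorded fluorescent anti-GST bound to GST-tagged yeast transcription factors. These were applied at about 100-200 nM to universal all-10-mer Agilent arrays double-stranded by primer extension.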
With TAAGCAAA, the “PBM E-score” value was found to be 0.181.
The figure for GGGACCGA is 0.146; for GGTATTAC it is 0.0133.
As to CGTACTGC, the “PBM E-score” value is 0.245.
The figure for AATACCCA is -0.155; for AAACAAGG it is -0.188; for GTAAGACA it is 0.101.
To TATTTAAA belongs 0.131; to AATTGCAC, -0.103; to AGTTCCAA, -0.216.
Consider AGGGGCAA, for which the “PBM E-score” value is -0.0978.
To AAGTGATG belongs -0.0502; to AGTGTTGA, -0.0264; to CATTGGGG, -0.304.
The figure for CAGGGTTC is 0.0515.
Take ATCCATTC: the “PBM E-score” value was 0.136.
To AAAGCGAA belongs 0.0877; to AGTCTAGG, -0.159.
The figure for CCATTTAA is -0.0213.
To ATCCTTGG belongs -0.199; to AGAAAAAA, -0.0692.
Consider CACTCAGC, for which the “PBM E-score” value was -0.223.
As for GCACCGAA, the “PBM E-score” value stood at 0.0996.
To AATTCGAG belongs 0.00487; to CAGGTCGA, -0.235; to ACGAAACC, 0.267.
For the sequence ACTTCTCG, the “PBM E-score” value was determined as 0.197.
The figure for AACTCGTC is 0.0662; for AAGTTGAG it is 0.0579; for GGATTCGA it is -0.251.
To AAGACTGT belongs -0.0358; to AGTGAGCC, -0.249; to GATCAAAC, 0.123.
The figure for AGTTGACG is -0.114.
In the case of GAAGCCTA, the “PBM E-score” value was 0.0141.
Regarding TCAGCCCA, the “PBM E-score” value was -0.155.
Take CATCACTC: the “PBM E-score” value was -0.168.
The figure for GCTTGGCC is -0.113; for CTAGAATC it is 0.0144.
To CTGTCACC belongs -0.127; to CTTTAAAG, -0.114.
In the case of CATGTCAG, the “PBM E-score” value was -0.372.
To CCCGTACG belongs 0.393; to ACGACTGG, 0.289.
The figure for CCTGCCTC is 0.0268.
The figure for CCTTCAAC is -0.125; for CGGGGCAA it is -0.0771.
Regarding ACACGAAC, the “PBM E-score” value was 0.216.
To CGTTTCAC belongs 0.238; to CACTAACA, -0.087; to ATCGTCAT, 0.109.
The figure for CACGGACG is -0.137; for CGCTTGCC it is -0.0304; for TTAGAGAA it is -0.124.
The figure for AGTAAACC is -0.0507; for CGACGTCA it is 0.0552; for CAATTAAA it is 0.0542.
On to AATTTCCT, for which the “PBM E-score” value is -0.129.
Consider AGACTATA, for which the “PBM E-score” value is 0.197.
Take CAGGATCC: the “PBM E-score” value is -0.0255.
The figure for AATAGTCC is -0.249.
To GAACCCCC belongs -0.21.
To GGGAGGAC belongs -0.118.
As for CGGACACA, the “PBM E-score” value is -0.111.
To ACCGAAGT belongs 0.147; to ATGCCTCC, -0.214; to CCCTCAGA, -0.114.
The figure for ATGCAATA is -0.105.
The figure for GCAACAAC is -0.0227; for CGAAATAA it is 0.22.
For the sequence TCACTTCA, the “PBM E-score” value is -0.239.
The figure for AAAGCTTA is -0.0429.
To ACAACCAA belongs -0.118; to GAGCATAC, 0.13; to CGAATTCC, 0.17.
The figure for AGTCCCAC is -0.208; for GATTCCCA it is -0.0776.
Take AAGCGTTC: the “PBM E-score” value is -0.0577.
The figure for AGCATCCT is -0.132; for AGACATCT it is 0.12.
The figure for GGTGTAGA is -0.0982; for AGCACCGG it is -0.202.
To AATAAAAT belongs -0.0336; to ATCTCCAC, -0.126.
Regarding GCCTGGCA, the “PBM E-score” value was -0.27.
The figure for ACTCGTTA is 0.35.
